Experimental data taken from PubChem BioAssay AID686979 (National Center for Advancing Translational Sciences (NCATS), 2013).
“And” between values parts separate entries of the source, which are not always exact repeats. Equal values may be shown once. Screen size: about 420,000 compounds; about 50,000 (12%) were called active. This list was built around the results that the source calls inconclusive (neither active nor inactive); the mix of calls is not that of the screen. Calls come from the whole dose curve; as a rule, active = well fitted inhibition curve with a large enough effect; inconclusive = small, poorly fitted or top-dose-only effect; inactive = flat fitted curve, though single readings scatter. No potency is given beside an inconclusive call; the fits are too rough.

Experiment: qHTS for Inhibitors of human tyrosyl-DNA phosphodiesterase 1 (TDP1): qHTS in cells in presence of CPT; note: nearly all actives have a fitted effect of over 55% in size
Conditions: chicken DT40 Tdp1-/-;hTDP1 cells + 20 nM CPT, ATP luminescence, 48 h; activity change, negative = growth inhibition: at 46.2 µM (top of the series) unless noted
Procedure, shortened: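 Cell growth measured by CellTiter-Glo luminescence after a minimum 48 h, 37 C compound exposure with 20 nM CPT in Tdp1-knockout DT40 cells stably expressing hTDP1, seeded 400/well; qHTS titration format.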
% is set by controls: 0 for no effect and ±100 for the full control effect; potency is the fitted concentration of half-maximal effect; tags give direction and shape of the fitted curve.

Row | Compound | Potency | activity change, negative = growth inhibition
1 | CCOc1c2ccc(C(=O)NCc3ccc(C(F)(F)F)cc3C(F)(F)F)cc2nn1C | inactive | –
2 | COC(=O)c1ccc(Nc2ncnc3c2nc2n3CCCC2)cc1 | inconclusive [inhibitor, partial curve, poor fit] | –
3 | CC(SC1=NCCN1S(=O)(=O)c1ccccc1)c1ccccc1 (stereo not given) | inactive | –
4 | COc1ccc(/C=C/C(=O)Nc2ccccc2C)cc1S(=O)(=O)N1CCOCC1 | inconclusive [inhibitor, single point] | –
5 | N#Cc1ccc(CN2CCCC3(CCN(C(=O)c4ccncc4)CC3)C2)cc1 | inactive | –
6 | Cc1cc(/C=C(\C#N)C(=O)Nc2ccc(Cl)cc2)c(C)n1-c1ccc(N2CCOCC2)c([N+](=O)[O-])c1 | active: 7.31 µM | –
7 | CC(=O)c1cccc(Nc2nc(N3CCOCC3)nc(N3CCOCC3)n2)c1 | inconclusive [inhibitor, single point] | –
8 | Cc1ccccc1COc1cccc(/C=N/NC(=O)c2nnn(-c3nonc3N)c2C)c1 | inconclusive [inhibitor, single point] | –
9 | CCCCCc1cc(=O)oc2c(C(CCN3CCN(c4ccccc4)CC3)c3ccc(N(C)C)cc3)c(OC)cc(OC)c12 (stereo not given) | active: 20.6 µM | –
10 | O=C(CCc1ccc(S(=O)(=O)NCc2ccccc2)cc1)NCc1cccnc1 | inconclusive [inhibitor, single point] | –
11 | CCOC(=O)[C@]12CCCC=C1N(Cc1cccc3ccccc13)C(=O)[C@H](CC(=O)NCc1cccc3ccccc13)C2 | inconclusive [inhibitor, single point] | –
12 | COc1ccccc1OCCn1cc(C(=O)c2cccs2)c2ccccc21 | inconclusive [inhibitor, single point] | –
13 | CC(=O)Nc1ccc(C)c(NC(=S)Nc2ccc(F)cc2)c1 | inactive | –
14 | CCC[C@H]1CC(=O)C=C(c2ccc(OC)cc2)ON1C(=O)OC(C)(C)C | inconclusive [inhibitor, single point] | –
15 | CCOc1cc(-c2ccccc2)nc2c1CN(S(=O)(=O)c1ccc(C)cc1)C(c1cccc(Cl)c1)C2 (stereo not given) | inconclusive [inhibitor, single point] | –
16 | NC1=NC[C@H](Cc2ccc(O)cc2)N1CCCCC1CCCCC1 | active: 4.61 µM | –
17 | O=C1c2ccc(O)c(O)c2C(=O)c2c(O)ccc(O)c21 | active: 10.3 µM | –
18 | O=C(c1cc2ccccc2o1)N1CCN(S(=O)(=O)/C=C/c2ccccc2)CC1 | inconclusive [inhibitor, partial curve] | –
19 | COc1ccc(-c2cn(-c3ccccc3)c3[n+]2CCS3)cc1 | active: 11.6 µM and active: 2.31 µM | –
20 | CC1(C(=O)NS(=O)(=O)c2cccc(Cl)c2)CCN1C(=O)CCc1ccccc1 (stereo not given) | – | inconclusive: -31% [inhibitor]
21 | Cc1cccc(-n2c(SCC(N)=O)nc3c(oc4ccccc43)c2=O)c1 | inconclusive [inhibitor, single point] | –
22 | Cc1ccc(S(=O)(=O)N(C)C[C@H]2OCCCC[C@@H](C)Oc3ccc(NC(=O)Cc4ccccc4)cc3C(=O)N([C@H](C)CO)C[C@@H]2C)cc1 | inconclusive [inhibitor, single point] | –
23 | O=c1c(Cc2c(F)cccc2Cl)c(O)ccn1CCc1ccccn1 | inactive | –
24 | Cc1cc(Nc2cccc(Cl)c2)n2ncnc2n1 | inactive | –

Row | Compound | Potency | activity change, negative = growth inhibition
25 | C[C@@]12C(=O)Nc3ccccc3C(=O)N1[C@H]1c3cc(Br)ccc3OC[C@@H]1[C@@H]2c1ccccc1 | inconclusive [inhibitor, single point] | –
26 | CC1(C)CCC(C)(C)NC(=S)N1 | inconclusive [inhibitor, single point] | –
27 | O=C(c1ccc(S(=O)(=O)NCC2CCCO2)cc1)N1CCN(c2cccc(Cl)c2)CC1 (stereo not given) | active: 14.6 µM | –
28 | Cc1nn(C)cc1/C=N/NC(=O)c1sc2ccccc2c1Cl | inconclusive [inhibitor, single point] | –
29 | O=C(CSc1nnc(-c2cnccn2)n1Cc1ccco1)c1ccc(Cl)cc1 | active: 23.1 µM | –
30 | CCOC(=O)N1CCN(C(=O)CN(c2cccc(Cl)c2C)S(=O)(=O)c2ccc(C)cc2)CC1 | active: 20.6 µM | –
31 | CCCSc1ccc([C@H]2N[C@@](C)(C(=O)OC)[C@H]3C(=O)N(C)C(=O)[C@@H]23)cc1OC | inactive | –
32 | CCN(CC)CCN(C(=O)c1ccco1)c1nc2ccc(Cl)cc2s1 | inconclusive [inhibitor, single point] | –
33 | O=C(NCCOc1ccccc1F)c1cccc(S(=O)(=O)N2CCN(c3ccccc3)CC2)c1 | inconclusive [inhibitor, single point] | –
34 | CN(C)c1c(Cl)cc(/C=C2\C=Cc3ccccc32)cc1Cl | inconclusive [inhibitor, single point] | –
35 | O=C(OCC(=O)N(C1CCCCC1)C1CCCCC1)c1ccccc1O | inconclusive [inhibitor, single point] | –
36 | Cc1ccc(/C=C/C2=NN(Cc3ccccc3Cl)C(=O)CC2)cc1 | inconclusive [inhibitor, single point] | –
37 | Cc1nn(CC(=O)NC2CC2)c(=O)c2cc3ccccc3n12 | inactive | –
38 | COc1cc(OC)nc(Nc2nc(C(N)COCc3ccccc3)cs2)n1 (stereo not given) | inconclusive [inhibitor, single point] | –
39 | Cn1c(SCc2ccc(F)cc2)nc2ccc(C(=O)NCc3ccc(F)cc3)cc21 | active: 16.4 µM | –
40 | C=CCn1cnc2c(c1=O)c1nc3ccccc3nc1n2/N=C/c1ccccn1 | active: 16.4 µM | –
41 | Nc1ccn([C@H]2CC[C@@H](CO)O2)c(=O)n1 | active: 13.3 µM and active: 9.2 µM and active: 7.5 µM | –
42 | CCCc1cc(=O)[nH]c(SCC(=O)Nc2nc(-c3ccccc3)cs2)n1 | inconclusive [inhibitor, full curve, poor fit] | –
43 | Fc1cccc(Cl)c1Cn1nnc2c(NCc3ccccn3)ncnc21 | – | inconclusive: -32.8% [inhibitor]
44 | CC(C)(C)c1ccc(-n2ncc3c2CCCC3NC(=O)CCN2CCCC2=O)cc1 (stereo not given) | active: 6.51 µM | –
45 | COc1cc(/C=C/c2ccnc3ccccc23)ccc1N(C)C | active: 2 µM | –
46 | Cc1cc(C)cc(NC(=O)c2cc(S(=O)(=O)N3CCCCCC3)cn2C)c1 | inactive | –
47 | COc1ccc(CC(=O)N(C)CC(=O)Nc2cccc(F)c2)cc1S(=O)(=O)N1CCOCC1 | inactive | –
48 | CCOC(=O)c1c(Nc2ccccc2)sc(/C=C2\C=Nc3ccccc32)c1O | active: 20.6 µM | –

Row | Compound | Potency | activity change, negative = growth inhibition
49 | Cc1cccc(NC(=S)NC(NC(=O)OCc2ccccc2)C(Cl)(Cl)Cl)c1 (stereo not given) | active: 23.1 µM | –
50 | COc1ccc(CNc2ncc(-c3ccc(Cl)cc3)n2C)c(OC)c1OC | inconclusive [inhibitor, single point] | –
51 | COc1ccc(OC(F)(F)F)cc1CC1(C)C(=O)Nc2ccc(S(=O)(=O)NC3CCCCC3)cc21 (stereo not given) | active: 20.6 µM | –
52 | CN1CCN(c2nc(-c3ccccc3O)nc3ccccc23)CC1 | inconclusive [inhibitor, single point] | –
53 | Cc1ccc(-n2nc3c(N4CCC(C(=O)NC(C)C)CC4)nnc(C)c3c2C)cc1 | inactive | –
54 | Cc1[nH]c2ccccc2c1N=Nc1ccccc1C(=O)O | inactive | –
55 | COc1ccc(CNc2nc(-c3ccc(C(=O)N(C)C)cc3)nc3ccccc23)c(OC)c1 | inconclusive [inhibitor, single point] | –
56 | Cc1ccc(OCc2nnc(SCC(=O)N3c4ccccc4Sc4ccc(Cl)cc43)o2)cc1 | inconclusive [inhibitor, single point] | –
57 | COc1ccc2cc(C(=O)NCc3ccco3)c(=Nc3ccc(C(=O)O)cc3)oc2c1 | inconclusive [inhibitor, partial curve, poor fit] | –
58 | Cc1ccc(CN(C)C(=O)c2cc(Br)c(Br)s2)o1 | inconclusive [inhibitor, single point] | –
59 | Cc1ccc(NC(=O)Cn2c(-c3ccc4c(c3)OCO4)cn(-c3ccccc3)c2=O)cc1C | inactive | –
60 | N#CCCn1cc(C(=O)Nc2ccc(C(=O)O)cc2)c(-c2ccc([N+](=O)[O-])cc2)n1 | inactive | –
61 | Cn1c(SCC(=O)N2c3ccccc3CCc3ccccc32)nnc1-c1ccc(O)cc1 | inactive | –
62 | NC(=O)C1=NOC(CNc2ncc(C(F)(F)F)cc2Cl)C1 (stereo not given) | inactive | –
63 | O=C(CC(Nc1ccccc1)C(=O)O)c1ccccc1 (stereo not given) | inconclusive [inhibitor, single point] | –
64 | N#Cc1cccc(-c2nc3cnc(N4CCOCC4)nc3n(Cc3ccc(F)cc3)c2=O)c1 | inactive | –
65 | Cc1ccc(NC(=O)c2ccc(NCCCN3CCC(C)CC3)c([N+](=O)[O-])c2)c(C)c1 | inconclusive [inhibitor, single point] | –
66 | CCC1CN(C(=O)N2CCC(C(=O)NCc3ccc(OC)cc3OC)CC2)c2cc(C)ccc2O1 (stereo not given) | inconclusive [inhibitor, single point] | –
67 | O=C(NN1CCOCC1)c1cc(-c2ccc(Br)cc2)nc2ccccc12 | inconclusive [inhibitor, partial curve] | –
68 | CCOc1ccc(S(=O)(=O)N2CCN(C(=O)c3cc(S(=O)(=O)N4CCOCC4)ccc3C)CC2)cc1 | inactive | –
69 | Cc1ccc(C)c(OCC(=O)N/N=C/c2ccc(N3CCOCC3)cc2)c1 | inconclusive [inhibitor, single point] | –
70 | Cc1cc2oc(=O)cc(-c3ccccc3)c2c(C)c1-c1ccc(O)cc1 | inconclusive [inhibitor, single point] | –
